Article PMC9911399, “Two distinct binding modes provide the RNA-binding protein RbFox with extraordinary sequence specificity”
Substitutions are numbered along the chain they refer to; changes in the protein carry UniProt numbers. The list shows a part of the results.

T1: RBFOX1 RRM RbFoxmut (Fox-RRM*) (Homo sapiens, UniProt Q9NWB1 109-208, R118D;E147R;N151S;E152T)
T1 sequence: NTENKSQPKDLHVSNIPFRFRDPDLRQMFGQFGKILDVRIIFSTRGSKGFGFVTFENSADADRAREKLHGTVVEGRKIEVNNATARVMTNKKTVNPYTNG

B1: UCGCGGA (DNA:RNA)
RNA: GGGAGACCGGAAUUCAGAUUGUCCUCGCGGAUUAAAUCCCGUCGUAGCCACCA
DNA 1: CAATCTGAATTCCGGTCTCCC
DNA 2: TGGTGGCTACGACGGGATT
B2: UCUUUGG (DNA:RNA)
RNA: B1 RNA with G27U, C28U, G29U, A31G
DNA 1: CAATCTGAATTCCGGTCTCCC
DNA 2: TGGTGGCTACGACGGGATT
B3: ACAAACC (DNA:RNA)
RNA: B1 RNA with U25A, G27A, C28A, G29A, G30C, A31C
DNA 1: CAATCTGAATTCCGGTCTCCC
DNA 2: TGGTGGCTACGACGGGATT
B4: UGCCUAC (DNA:RNA)
RNA: B1 RNA with C26G, G27C, G29U, G30A, A31C
DNA 1: CAATCTGAATTCCGGTCTCCC
DNA 2: TGGTGGCTACGACGGGATT
B5: AACACUG (DNA:RNA)
RNA: GGGAGACCGGAAUUCAGAUUGUCCAACACUGUUAAAUCCCGUCGUAGCCACCA
DNA 1: CAATCTGAATTCCGGTCTCCC
DNA 2: TGGTGGCTACGACGGGATT
B6: CUACUUU (DNA:RNA)
RNA: B5 RNA with A25C, A26U, C27A, A28C, C29U, G31U
DNA 1: CAATCTGAATTCCGGTCTCCC
DNA 2: TGGTGGCTACGACGGGATT
B7: UUGUUGU (DNA:RNA)
RNA: B1 RNA with C26U, C28U, G29U, A31U
DNA 1: CAATCTGAATTCCGGTCTCCC
DNA 2: TGGTGGCTACGACGGGATT
B8: GAUCUAG (DNA:RNA)
RNA: B5 RNA with A25G, C27U, A28C, C29U, U30A
DNA 1: CAATCTGAATTCCGGTCTCCC
DNA 2: TGGTGGCTACGACGGGATT
B9: UAAUAUU (DNA:RNA)
RNA: B5 RNA with A25U, C27A, A28U, C29A, G31U
DNA 1: CAATCTGAATTCCGGTCTCCC
DNA 2: TGGTGGCTACGACGGGATT
B10: UUUGACA (DNA:RNA)
RNA: B1 RNA with C26U, G27U, C28G, G29A, G30C
DNA 1: CAATCTGAATTCCGGTCTCCC
DNA 2: TGGTGGCTACGACGGGATT
B11: CCCUCGA (DNA:RNA)
RNA: B1 RNA with U25C, G27C, C28U, G29C
DNA 1: CAATCTGAATTCCGGTCTCCC
DNA 2: TGGTGGCTACGACGGGATT
B12: GUCAUAC (DNA:RNA)
RNA: B5 RNA with A25G, A26U, C29U, U30A, G31C
DNA 1: CAATCTGAATTCCGGTCTCCC
DNA 2: TGGTGGCTACGACGGGATT
B13: CUCGGGG (DNA:RNA)
RNA: B5 RNA with A25C, A26U, A28G, C29G, U30G
DNA 1: CAATCTGAATTCCGGTCTCCC
DNA 2: TGGTGGCTACGACGGGATT
B14: CGAAAUU (DNA:RNA)
RNA: B5 RNA with A25C, A26G, C27A, C29A, G31U
DNA 1: CAATCTGAATTCCGGTCTCCC
DNA 2: TGGTGGCTACGACGGGATT
B15: CGGAGUC (DNA:RNA)
RNA: B5 RNA with A25C, A26G, C27G, C29G, G31C
DNA 1: CAATCTGAATTCCGGTCTCCC
DNA 2: TGGTGGCTACGACGGGATT
B16: UUUCCUC (DNA:RNA)
RNA: B5 RNA with A25U, A26U, C27U, A28C, G31C
DNA 1: CAATCTGAATTCCGGTCTCCC
DNA 2: TGGTGGCTACGACGGGATT
B17: AACAGUU (DNA:RNA)
RNA: B5 RNA with C29G, G31U
DNA 1: CAATCTGAATTCCGGTCTCCC
DNA 2: TGGTGGCTACGACGGGATT
B18: UGCUAUA (DNA:RNA)
RNA: B5 RNA with A25U, A26G, A28U, C29A, G31A
DNA 1: CAATCTGAATTCCGGTCTCCC
DNA 2: TGGTGGCTACGACGGGATT
B19: GCCGUAG (DNA:RNA)
RNA: B5 RNA with A25G, A26C, A28G, C29U, U30A
DNA 1: CAATCTGAATTCCGGTCTCCC
DNA 2: TGGTGGCTACGACGGGATT
B20: GUAAAAG (DNA:RNA)
RNA: B5 RNA with A25G, A26U, C27A, C29A, U30A
DNA 1: CAATCTGAATTCCGGTCTCCC
DNA 2: TGGTGGCTACGACGGGATT
B21: ACCCCAG (DNA:RNA)
RNA: B5 RNA with A26C, A28C, U30A
DNA 1: CAATCTGAATTCCGGTCTCCC
DNA 2: TGGTGGCTACGACGGGATT
B22: CCUGAAC (DNA:RNA)
RNA: B1 RNA with U25C, G27U, C28G, G29A, G30A, A31C
DNA 1: CAATCTGAATTCCGGTCTCCC
DNA 2: TGGTGGCTACGACGGGATT
B23: CUCUAGA (DNA:RNA)
RNA: B1 RNA with U25C, C26U, G27C, C28U, G29A
DNA 1: CAATCTGAATTCCGGTCTCCC
DNA 2: TGGTGGCTACGACGGGATT
B24: UUCUAUC (DNA:RNA)
RNA: B5 RNA with A25U, A26U, A28U, C29A, G31C
DNA 1: CAATCTGAATTCCGGTCTCCC
DNA 2: TGGTGGCTACGACGGGATT
B25: CGGUCGA (DNA:RNA)
RNA: B1 RNA with U25C, C26G, C28U, G29C
DNA 1: CAATCTGAATTCCGGTCTCCC
DNA 2: TGGTGGCTACGACGGGATT
B26: AGCCGGU (DNA:RNA)
RNA: B1 RNA with U25A, C26G, G27C, A31U
DNA 1: CAATCTGAATTCCGGTCTCCC
DNA 2: TGGTGGCTACGACGGGATT
B27: AGGGGAU (DNA:RNA)
RNA: B1 RNA with U25A, C26G, C28G, G30A, A31U
DNA 1: CAATCTGAATTCCGGTCTCCC
DNA 2: TGGTGGCTACGACGGGATT
B28: CCAAGUU (DNA:RNA)
RNA: B5 RNA with A25C, A26C, C27A, C29G, G31U
DNA 1: CAATCTGAATTCCGGTCTCCC
DNA 2: TGGTGGCTACGACGGGATT
B29: AAAAGCC (DNA:RNA)
RNA: B5 RNA with C27A, C29G, U30C, G31C
DNA 1: CAATCTGAATTCCGGTCTCCC
DNA 2: TGGTGGCTACGACGGGATT
B30: GUCUACC (DNA:RNA)
RNA: B5 RNA with A25G, A26U, A28U, C29A, U30C, G31C
DNA 1: CAATCTGAATTCCGGTCTCCC
DNA 2: TGGTGGCTACGACGGGATT
B31: GUGUCAC (DNA:RNA)
RNA: B5 RNA with A25G, A26U, C27G, A28U, U30A, G31C
DNA 1: CAATCTGAATTCCGGTCTCCC
DNA 2: TGGTGGCTACGACGGGATT

Biological target: T1, RBFOX1 RRM RbFoxmut (Fox-RRM*)
Test: EMSA; HiTS-Eq, 1 nM pool, 10 min; buffer printed only for the single-RNA assays: 10 mM Tris pH 7.5, 150 mM NaCl, 3.4 mM EDTA, 0.001% NP-40, 30 C
Settings: tags: His6 N-terminal (pET28a); label: 5' 32P
Procedure, shortened: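 Purified RbFox RRM, wild type or mutant, was incubated for 10 min in 50 µL with 1 nM of a 5′-radiolabelled RNA pool carrying 7 randomized nucleotides, whose flanks were annealed to DNA oligonucleotides, over a series of increasing protein concentrations. Unbound RNA was resolved on 8% native PAGE, cut out, reverse-transcribed, barcoded by PCR and sequenced on an Illumina HiSeq 2500. Relative association constants were derived from changes in read counts for each RNA species versus the control reaction and normalised to the cognate motif.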

Question: B1 was tested. Which binding signal did it give?
Answer: The binding signal was 0.0704 KA relative to UGCAUGU.

Question: How did the binding signal turn out when B2 was run?
Answer: The binding signal was 0.108 KA relative to UGCAUGU.

Question: B3 was tested. Which binding signal did it give?
Answer: Its binding signal is 0.0766 KA relative to UGCAUGU.

Question: B4 was tested. Which binding signal did it give?
Answer: The binding signal was 0.105 KA relative to UGCAUGU.

Question: How did the binding signal turn out when B5 was run?
Answer: The binding signal was 0.0461 KA relative to UGCAUGU.

Question: How did the binding signal turn out when B6 was run?
Answer: The binding signal was 0.0663 KA relative to UGCAUGU.

Question: How did the binding signal turn out when B7 was run?
Answer: Its binding signal is 0.21 KA relative to UGCAUGU.

Question: How did the binding signal turn out when B8 was run?
Answer: Its binding signal is 0.122 KA relative to UGCAUGU.

Question: With B9 as the binder, how does the binding signal read?
Answer: The binding signal was 0.0688 KA relative to UGCAUGU.

Question: With B10 as the binder, how does the binding signal read?
Answer: Its binding signal is 0.0638 KA relative to UGCAUGU.

Question: Which binding signal does the source give for B11 here?
Answer: The binding signal was 0.0691 KA relative to UGCAUGU.

Question: B12 was tested. Which binding signal did it give?
Answer: Its binding signal is 0.1 KA relative to UGCAUGU.

Question: For B13, which binding signal is on record?
Answer: The binding signal was 0.0788 KA relative to UGCAUGU.

Question: Which binding signal does the source give for B14 here?
Answer: The binding signal was 0.0581 KA relative to UGCAUGU.

Question: With B15 as the binder, how does the binding signal read?
Answer: The binding signal was 0.138 KA relative to UGCAUGU.

Question: With B16 as the binder, how does the binding signal read?
Answer: Its binding signal is 0.0512 KA relative to UGCAUGU.

Question: Which binding signal does the source give for B17 here?
Answer: The binding signal was 0.062 KA relative to UGCAUGU.

Question: With B18 as the binder, how does the binding signal read?
Answer: Its binding signal is 0.131 KA relative to UGCAUGU.

Question: How did the binding signal turn out when B19 was run?
Answer: Its binding signal is 0.101 KA relative to UGCAUGU.

Question: For B20, which binding signal is on record?
Answer: The binding signal was 0.0873 KA relative to UGCAUGU.

Question: With B21 as the binder, how does the binding signal read?
Answer: The binding signal was 0.0944 KA relative to UGCAUGU.

Question: Which binding signal does the source give for B22 here?
Answer: Its binding signal is 0.0894 KA relative to UGCAUGU.

Question: With B23 as the binder, how does the binding signal read?
Answer: The binding signal was 0.13 KA relative to UGCAUGU.

Question: With B24 as the binder, how does the binding signal read?
Answer: Its binding signal is 0.0844 KA relative to UGCAUGU.

Question: With B25 as the binder, how does the binding signal read?
Answer: Its binding signal is 0.0808 KA relative to UGCAUGU.

Question: How did the binding signal turn out when B26 was run?
Answer: Its binding signal is 0.0724 KA relative to UGCAUGU.

Question: Which binding signal does the source give for B27 here?
Answer: The binding signal was 0.0992 KA relative to UGCAUGU.

Question: How did the binding signal turn out when B28 was run?
Answer: Its binding signal is 0.106 KA relative to UGCAUGU.

Question: How did the binding signal turn out when B29 was run?
Answer: The binding signal was 0.0656 KA relative to UGCAUGU.

Question: For B30, which binding signal is on record?
Answer: The binding signal was 0.0758 KA relative to UGCAUGU.

Question: With B31 as the binder, how does the binding signal read?
Answer: Its binding signal is 0.0808 KA relative to UGCAUGU.
